# The campaign covered roughly 360,000 compounds. About 17,000 (4.7%) were called active. The inconclusive results got no clear call from the source; some entries with a clear call stand among them for comparison. Rule as the data show it: active = activity change below about -50%; inconclusive = mostly about -30% to -49%; inactive = weaker than that.
# Experiment: qHTS for Inhibitors of Inflammasome Signaling: IL-1-beta AlphaLISA Primary Screen
# Conditions: THP-1 LPS/ATP IL-1B secretion, 16 h; at 57.5 µM, active compounds read low
# Outline: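 Secreted IL-1B measured by AlphaLISA bead assay after 16 h compound exposure of THP-1 cells; compounds (final up to 57.5 uM) added 1 h before LPS (250 ng/mL) and ATP (1.25 mM) stimulation; lower signal means less secretion.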
# % is scaled to controls: 0 for no effect and ±100 for the full control effect.
row,Compound,activity change
1,COc1ccc(S(=O)(=O)Nc2ccc(S(=O)(=O)NCC3CCCO3)cc2)cc1 (centres undefined),inactive: -16.4%
2,CC(C)(CNC(=O)c1sc2cc(Cl)ccc2c1Cl)N1CCOCC1,inconclusive: -44.2%
3,CCCCCCCCN1C(=O)[C@H](CC(=O)N2CCOCC2)C[C@@]2(C(=O)OC)CC(C)(C)CC=C12,inconclusive: -47.6%
4,COc1ccc(-n2nnc3c(SCC(=O)N4CCCc5ccccc54)ncnc32)cc1,inactive: -9.49%
5,Oc1ccc(/C=N/Nc2cc(N3CCCC3)nc(N3CCCC3)n2)cc1,active: -101%
6,CC#CC(=O)NCC1(N(C)Cc2ccccc2)Cc2ccccc2C1,inactive: 0%
7,FC(F)(F)c1cc(CCN2C(=S)NC[C@@H]2CC2CCCCC2)cc(C(F)(F)F)c1,inconclusive: -39.9%
8,CC(C)=CC(=O)OCC(=O)Nc1nc(C)c(Cl)cc1Cl,inconclusive: -30%
9,Nc1n[nH]c(C2CC2)c1N=Nc1ccc(Cl)c(Cl)c1,inconclusive: -41.8%
10,COc1ccc(-c2cc(C#N)nc(NN)n2)cc1,inconclusive: -49.7%
11,CSc1nsc(SCC(=O)N2CCCCC2)n1,inconclusive: -32%
12,N#Cc1c(N)n(CCCN2CCOCC2)c2nc3ccccc3nc12,inconclusive: -35.8%
13,COc1ccc(C(=O)/C=C/Nc2cc(C)on2)cc1,inconclusive: -33.5%
14,COc1ccc(-c2nn(-c3ccccc3)cc2/C=C/C(=O)N(C)CC(=O)Nc2cccc(F)c2)cc1OC,inconclusive: -40.1%
15,CC(=O)C1CCC2C3CC(C)=C4CC(O)CCC4(C)C3CCC12C (centres undefined),active: -98.7%
16,COc1ccc2[nH]c(=O)c(CN(Cc3nnnn3CCc3ccccc3)CC3CCCO3)cc2c1 (centres undefined),inconclusive: -36.1%
17,Cc1cccc(C)c1N=C1SC(CC(=O)Nc2c(C)cccc2C)C(=O)N1CCc1ccccn1 (centres undefined),inconclusive: -37.5%
18,Fc1ccccc1NC(=S)NCCc1ccc(Cl)cc1,inconclusive: -30.2%
19,COC(=O)c1ccccc1SC(CC(=O)c1ccccc1)c1ccc(F)cc1 (centres undefined),inconclusive: -44.3%
20,COc1cc(Cl)c(C)cc1Nc1ncccn1,inactive: -1.9%
21,COc1ccc(C(=O)N(Cc2ccccc2)c2cccc(C)c2)cc1,inactive: 12.8%
22,CC(Oc1ccc(Br)cc1)C(=O)N(Cc1ccccc1)c1c(N)n(Cc2ccccc2)c(=O)[nH]c1=O (centres undefined),inconclusive: -38.9%
23,COc1ccc(CC2(CO)CCN(Cc3ccc4c(c3)CCO4)CC2)cc1,inconclusive: -45.6%

row,Compound,activity change
1,COc1ccc(C)cc1NC(=O)CN(C)S(=O)(=O)c1ccc2c(c1)n(C)c(=O)c(=O)n2C,inconclusive: -40.4%
2,O=S(=O)(c1ccccc1C(F)(F)F)N1CCN(c2ncnc3sccc23)CC1,active: -62.2%
3,CCc1ccccc1OCC(=O)Nc1cccc(S(=O)(=O)NCc2ccco2)c1,inconclusive: -34%
4,Cc1ccccc1OCC(=O)OCC(=O)NCC1CCCO1 (centres undefined),inactive: 15.3%
5,OC(CNC1CCCC1)COCCOc1ccc(Br)cc1 (centres undefined),active: -65.6%
6,Cc1ccc(NC(=O)c2cc([N+](=O)[O-])ccc2NCc2cccnc2)cc1,inconclusive: -45.4%
7,Cc1ccc(OCCC(=O)Nc2cc(S(=O)(=O)N3CCOCC3)ccc2N2CCCC2)cc1,inconclusive: -34.5%
8,Cc1cccc2sc(N3CCN(C(=O)c4cccs4)CC3)nc12,active: -77.6%
9,COc1ccc(C(=O)/C=C/Nc2cccc(C)n2)cc1OC,active: -59.5%
10,Cc1ccccc1N1CCN(Cc2c[nH]c3ccccc23)CC1,inconclusive: -35%
11,S=C(Nc1ccc(Cl)c(Cl)c1)NC1CCN(Cc2ccccc2)CC1,active: -108%
12,CCOc1ccc(Cl)cc1CNCCCSc1nc(C)cc(C)n1,inconclusive: -33.5%
13,C/C=C/C1=CC(=O)C[C@H](c2ccc(F)cc2)C1,inconclusive: -44.2%
14,COc1ccc(-c2nc3ccc(Cl)cn3c2Cc2ccccc2C(F)(F)F)cc1OC,inconclusive: -42.9%
15,CN(C)CCC=C1c2ccccc2CCc2ccccc21,inconclusive: -48.2%
16,Cc1cc(C)nc(N(C#N)CCOc2ccccc2)n1,inconclusive: -32.5%
17,CCn1c(SCC(=O)N2CCN(c3ccccc3)CC2)nnc1-c1c[nH]c2ccccc12,inactive: 9.58%
18,COc1cc(NC(=O)c2cccc(S(=O)(=O)N3CCCCC3)c2)cc(OC)c1OC,inactive: -2.11%
19,CC(C)Oc1ccc(C(=O)NC2CCN(Cc3ccccc3)CC2)cc1,active: -83.6%
20,CN(C)S(=O)(=O)Oc1cccc(C(=O)Nc2cccc(Cl)c2)c1,active: -55.7%
21,Nc1c(C(=O)NCc2ccc(Cl)cc2)sc2nc3c(c(C(F)(F)F)c12)CCC3,inconclusive: -49.3%
22,COc1cc(-c2c(-c3ccsc3)sc3ccccc23)cc(OC)c1OC,inactive: 13.3%
23,CCOc1ccccc1NC(=O)c1cc(C(=O)c2cc(Br)ccc2O)coc1=N,active: -85.6%

row,Compound,activity change
1,CCCNC(=O)NC(=O)CSc1nc2ccccc2n1CC(C)C,inactive: 2.02%
2,CCC12CN3CC(CC)(CN(C1)C3c1ccc([N+](=O)[O-])o1)C2=O (centres undefined),inactive: 11.8%
3,OCC(Cc1ccccc1)Nc1c2ccccc2nc2ccccc12 (centres undefined),active: -52.4%
4,COC(=O)Oc1nsnc1N1CCOCC1,inconclusive: -36.2%
5,Cc1c(CC(=O)NC(C)C)c(=O)oc2cc3c(cc12)CCC(C)(C)O3,inactive: -8.46%
6,CN1CCN(S(=O)(=O)c2cccc(C(=O)NC3CCCC3)c2)CC1,inactive: -1.18%
7,Cn1c(=O)n(C)c2cc([N+](=O)[O-])c(N3CCN(S(=O)(=O)c4ccc5ccccc5c4)CC3)cc21,inconclusive: -30.5%
8,CC(=O)Nc1ccc(S(=O)(=O)N(C)CC(=O)OCC(=O)Nc2ccc3c(c2)OCO3)cc1,inactive: -11.1%
9,Cc1ccc(-c2csc(NC(=O)CCNC(=O)c3ccccc3Cl)n2)cc1,active: -53.4%
10,NC(=O)C1CCN(C(=O)c2ccc(NC3=NC4CS(=O)(=O)CC4S3)cc2)CC1 (centres undefined),inactive: -15.5%
11,COc1cc(/C=C/c2nc(-c3ccccc3O)n[nH]2)cc(OC)c1OC,active: -121%
12,O=C(NCc1cn(-c2ccccc2)nc1-c1ccccc1)c1cc([N+](=O)[O-])cc([N+](=O)[O-])c1,inconclusive: -48.5%
13,Cc1cc(N2CCOCC2)nc2ccc(NC(=O)CCC(=O)N3CCCCC3)cc12,inactive: -5.18%
14,CCN1CCCC1CN(Cc1cc2ccc(C)cc2[nH]c1=O)C(=S)Nc1ccccc1C(=O)OC (centres undefined),inconclusive: -45.9%
15,O=C1Nc2ccccc2/C1=C/C(=O)c1cccs1,active: -119%
16,Cc1nn2c(-c3ccncc3)nnc2c2ccccc12,inconclusive: -46.7%
17,CCOC(=O)c1sc(NC(=O)Cc2ccc(F)cc2)nc1C,inactive: 7.13%
18,C=CCN(CC=C)c1nc2ccccc2nc1C(C#N)C(=O)OCCOC (centres undefined),inconclusive: -35.3%
19,CN1CCN(/N=C/c2nc(-c3ccc(Cl)cc3)n3ccccc23)CC1,inconclusive: -49.9%
20,O=C(/C=C/c1cn(-c2ccccc2)nc1-c1cccnc1)c1ccco1,active: -95.9%
21,Cc1ccc(S(=O)(=O)CC(CN2CCCCC2)N2CCCCC2)cc1 (centres undefined),active: -97.6%
22,NS(=O)(=O)c1cc(C(=O)Nc2ccc3c(c2)CCC3)ccc1Cl,active: -67.6%
23,CCC(=O)Nc1nc(-c2ccccc2)ns1,inactive: 2.48%

row,Compound,activity change
1,Cc1ccccc1NC(=S)NC(NC(=O)c1ccco1)C(Cl)(Cl)Cl (centres undefined),inconclusive: -36%
2,COc1ccc(CCNC(=O)c2ccc(N(C)S(=O)(=O)c3ccccc3)cc2)cc1,inactive: 6.26%
3,CCN(CC)CC#Cc1ccc(C)cc1,inactive: 25.1%
4,Cc1csc(NC(=O)CSc2nc(C(C)C)nc3ccccc23)n1,active: -95.8%
5,Oc1ccc(/C=N/N2CCN(C3c4ccccc4-c4ccccc43)CC2)cc1O,inconclusive: -35.9%
6,CCN(CC)CCCOc1nc(C)nc2c1oc1ccccc12,inconclusive: -45.8%
7,COc1cc(C(=O)Nc2cccc(C(C)=O)c2)cc(OC)c1OC,inconclusive: -38.5%
8,CCn1c(SCC(=O)N2c3ccccc3Sc3ccccc32)nnc1-c1ccco1,inconclusive: -48.9%
9,Cc1ccc(C(=O)OCC(=O)c2c[nH]c3ccccc23)cc1NC(=O)c1ccco1,inconclusive: -39.6%
10,O=C(COC(=O)c1ccc(S(=O)(=O)C(F)F)cc1)Nc1cccnc1Cl,inactive: 1.03%
11,COc1ccc(OCCN(C)Cc2c(O)ccc3ccccc23)cc1,inconclusive: -44%
12,O=C(c1ccc(Cl)c(Cl)c1)N1CCC(=O)N(C(COCc2ccccc2)Cc2ccccc2)CC1 (centres undefined),inconclusive: -38.6%
13,CN(C(=O)COC(=O)c1cc(S(=O)(=O)N2CCOCC2)ccc1F)C1CCS(=O)(=O)C1 (centres undefined),inactive: 9.48%
14,CC1=NN(c2ccc([N+](=O)[O-])cc2)C(=O)C1,inconclusive: -40%
15,C/C(Cn1nc([N+](=O)[O-])cc1C)=N\NC(=O)COc1ccc(Cl)cc1Cl,inconclusive: -49.1%
16,COc1ccc(CNCCC(c2ccc(F)cc2)c2ccc(OC(C)C)cc2)cc1OC (centres undefined),active: -96%
17,Cc1ccc(Nc2nnc(SCC(=O)Nc3cccc(S(=O)(=O)NC4=NCCCCC4)c3)s2)cc1,inconclusive: -33.6%
18,Cc1ccc(SCc2ccc(C(=O)Nc3nccs3)o2)cc1,inconclusive: -45.3%
19,COc1cc(/C=N/Nc2nc3c(c(=O)n(C)c(=O)n3C)n2Cc2ccccc2)ccc1OC(=O)c1ccco1,inconclusive: -49.4%
20,COc1ccc(NC(=O)c2sc3nc(N4CCCC4)c4c(c3c2N)CC(C)(C)OC4)c(OC)c1,inconclusive: -34%

# Source: PubChem BioAssay AID743279 (National Center for Advancing Translational Sciences (NCATS), 2014)
